From the supplement of paper PMC11741623
This is one part of the list. Interaction screen of human proteins with wild-type SARS-CoV-2 proteins by split-DHFR complementation in yeast, 1 µg/mL methotrexate. Value = fitness of the pair (three or more lineages) minus that of the viral protein without a human partner, on a scale set by negative (0) and fused positive (1) controls, mean of up to three cultures; higher = more likely to interact. Active = false discovery rate below 0.05 (one-sided t-test) in at least one culture. Nearly all pairs are not hits, and differences among them are mostly noise (correlation between cultures about 0.3); most hits were seen in one culture only. Human sequences are the Swiss-Prot entries looked up by gene name; the clone may be another isoform. NSP2 values were corrected by the authors for a growth advantage. Listed are human proteins with a hit and a random twelfth of the others.

What was measured:
Experiment in all cases: yeast fitness gain over the viral ORF with no human partner (scaled fitness); higher = more likely to interact
SARS-CoV-2 N = target: SARS-CoV-2 N
Protocol: (§1)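 Split mouse DHFR complementation in pooled diploid yeast: human ORFeome clones carry one fragment and viral ORFs the other; barcoded lineages compete in 1 µg/mL methotrexate and fitness is read by barcode sequencing in up to three cultures.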

SARS-CoV-2 NSP1 = target: SARS-CoV-2 NSP1
Protocol: as §1

SARS-CoV-2 NSP10 = target: SARS-CoV-2 NSP10
Protocol: as §1

SARS-CoV-2 NSP12 = target: SARS-CoV-2 NSP12
Protocol: as §1

SARS-CoV-2 NSP13 = target: SARS-CoV-2 NSP13
Protocol: as §1

SARS-CoV-2 NSP15 = target: SARS-CoV-2 NSP15
Protocol: as §1

SARS-CoV-2 NSP16 = target: SARS-CoV-2 NSP16
Protocol: as §1

SARS-CoV-2 NSP2 = target: SARS-CoV-2 NSP2
Protocol: as §1

SARS-CoV-2 NSP5 = target: SARS-CoV-2 NSP5
Protocol: as §1

SARS-CoV-2 NSP6 = target: SARS-CoV-2 NSP6
Protocol: as §1

SARS-CoV-2 NSP7 = target: SARS-CoV-2 NSP7
Protocol: as §1

SARS-CoV-2 NSP8 = target: SARS-CoV-2 NSP8
Protocol: as §1

SARS-CoV-2 ORF10 = target: SARS-CoV-2 ORF10
Protocol: as §1

SARS-CoV-2 ORF3B = target: SARS-CoV-2 ORF3B
Protocol: as §1

SARS-CoV-2 ORF6 = target: SARS-CoV-2 ORF6
Protocol: as §1

SARS-CoV-2 ORF7A = target: SARS-CoV-2 ORF7A
Protocol: as §1

SARS-CoV-2 ORF7B = target: SARS-CoV-2 ORF7B
Protocol: as §1

SARS-CoV-2 ORF8 = target: SARS-CoV-2 ORF8
Protocol: as §1

SARS-CoV-2 ORF9B = target: SARS-CoV-2 ORF9B
Protocol: as §1

[1] = target: SARS-CoV-2 ORF9Bwu (the 73-codon ORF)
Protocol: as §1

SARS-CoV-2 S = target: SARS-CoV-2 S
Protocol: as §1

SARS-CoV-2 NSP14 = target: SARS-CoV-2 NSP14
Protocol: as §1

SARS-CoV-2 NSP9 = target: SARS-CoV-2 NSP9
Protocol: as §1

SARS-CoV-2 ORF3A = target: SARS-CoV-2 ORF3A
Protocol: as §1

SARS-CoV-2 M = target: SARS-CoV-2 M
Protocol: as §1

Measured: yeast fitness gain

B1: INSL3, P51460 (protein)
chain: MDPRLPAWALVLLGPALVFALGPAPTPEMREKLCGHHFVRALVRVCGGPRWSTEARRPATGGDRELLQWLERRHLLHGLVADSNLTLGPGLQPLPQTSHHHRHHRAAATNPARYCCLSGCTQQDLLTLCPY
inactive: SARS-CoV-2 N 0.0223 | SARS-CoV-2 NSP1 = 0.00701 | SARS-CoV-2 NSP10 = -0.0214 | SARS-CoV-2 NSP12 = -0.021 | SARS-CoV-2 NSP13 = -0.169 | SARS-CoV-2 NSP15 = -0.0785 | SARS-CoV-2 NSP16 = -0.0849 | SARS-CoV-2 NSP2 = -0.186 | SARS-CoV-2 NSP5 = -0.0314 | SARS-CoV-2 NSP6 = 0.0246 | SARS-CoV-2 NSP7 = -0.0488 | SARS-CoV-2 NSP8 = -0.0189 | SARS-CoV-2 ORF10 = 0.0423 | SARS-CoV-2 ORF3B 0.0187 | SARS-CoV-2 ORF6 = 0.0179 | SARS-CoV-2 ORF7A -0.0344 | SARS-CoV-2 ORF7B -0.0449 | SARS-CoV-2 ORF8 = -0.116 | SARS-CoV-2 ORF9B 0.0337 | [1] 0.0261 | SARS-CoV-2 S -0.147

B2: IFLTD1, Q8N9Z9 (protein)
chain: MLEGSWINRREDKLGVYSLVHFSPKMLGSVATTLPLSSSNSSGMPLGYYLSSPQISRVTISTTGQLTSKATVGSCSRVENSLDASPFSVPKKQDESPMIGDGEDYFLSLFGDSKKLTAHSNYTQKTLKYFSMILEEVGQFTSSSLGDVEIAEVNVKGLFVKLINSSLDKEMAIGDHILQQNVNGQTISLYRFLPNIVMQANSTVTVWAAASEAKHQPPSDFLWKEQDKFRASPDCITILCKPNGQAIAWYTPIHWKQAWEKLDADVEFNRCSVVSPTFRKRVFQWTASTATITKEKQDQPKKDISNYQVEQAQVLLKREKEIPPTVFPNRSPWCQNPYVSAHPYCPLIEPHNTSTAGGRLDRQPRTRSTRPNRASGSKKKKTSESQKQ
inactive: SARS-CoV-2 N 0.01 | SARS-CoV-2 NSP10 = -0.0495 | SARS-CoV-2 NSP12 = -0.0735 | SARS-CoV-2 NSP13 = -0.141 | SARS-CoV-2 NSP14 = -0.00747 | SARS-CoV-2 NSP2 = -0.246 | SARS-CoV-2 NSP8 = -0.0374 | SARS-CoV-2 ORF10 = -0.108 | SARS-CoV-2 ORF7A 0.0149 | SARS-CoV-2 ORF7B -0.0165 | SARS-CoV-2 ORF8 = 0.0321 | SARS-CoV-2 ORF9B -0.0231 | SARS-CoV-2 S -0.209

B3: UBXN4, Q92575 (protein)
chain: MLWFQGAIPAAIATAKRSGAVFVVFVAGDDEQSTQMAASWEDDKVTEASSNSFVAIKIDTKSEACLQFSQIYPVVCVPSSFFIGDSGIPLEVIAGSVSADELVTRIHKVRQMHLLKSETSVANGSQSESSVSTPSASFEPNNTCENSQSRNAELCEIPPTSDTKSDTATGGESAGHATSSQEPSGCSDQRPAEDLNIRVERLTKKLEERREEKRKEEEQREIKKEIERRKTGKEMLDYKRKQEEELTKRMLEERNREKAEDRAARERIKQQIALDRAERAARFAKTKEEVEAAKAAALLAKQAEMEVKRESYARERSTVARIQFRLPDGSSFTNQFPSDAPLEEARQFAAQTVGNTYGNFSLATMFPRREFTKEDYKKKLLDLELAPSASVVLLPAGRPTASIVHSSSGDIWTLLGTVLYPFLAIWRLISNFLFSNPPPTQTSVRVTSSEPPNPASSSKSEKREPVRKRVLEKRGDDFKKEGKIYRLRTQDDGEDENNTWNGNSTQQM
inactive: SARS-CoV-2 N 0.0552 | SARS-CoV-2 NSP14 = -0.0267 | SARS-CoV-2 NSP15 = -0.0686 | SARS-CoV-2 NSP16 = 0.123 | SARS-CoV-2 NSP6 = -0.0324 | SARS-CoV-2 NSP9 = -0.00409 | SARS-CoV-2 ORF3A -0.0308 | SARS-CoV-2 ORF7A -0.0436 | [1] 0.00644

B4: WDR37, Q9Y2I8 (protein)
chain: MPTESASCSTARQTKQKRKSHSLSIRRTNSSEQERTGLPRDMLEGQDSKLPSSVRSTLLELFGQIEREFENLYIENLELRREIDTLNERLAAEGQAIDGAELSKGQLKTKASHSTSQLSQKLKTTYKASTSKIVSSFKTTTSRAACQLVKEYIGHRDGIWDVSVAKTQPVVLGTASADHTALLWSIETGKCLVKYAGHVGSVNSIKFHPSEQLALTASGDQTAHIWRYAVQLPTPQPVADTSISGEDEVECSDKDEPDLDGDVSSDCPTIRVPLTSLKSHQGVVIASDWLVGGKQAVTASWDRTANLYDVETSELVHSLTGHDQELTHCCTHPTQRLVVTSSRDTTFRLWDFRDPSIHSVNVFQGHTDTVTSAVFTVGDNVVSGSDDRTVKVWDLKNMRSPIATIRTDSAINRINVCVGQKIIALPHDNRQVRLFDMSGVRLARLPRSSRQGHRRMVCCSAWSEDHPVCNLFTCGFDRQAIGWNINIPALLQEK
inactive: SARS-CoV-2 M 0.117 | SARS-CoV-2 NSP1 = -0.108 | SARS-CoV-2 NSP12 = 0.151 | SARS-CoV-2 NSP13 = -0.0429 | SARS-CoV-2 NSP15 = -0.199 | SARS-CoV-2 NSP2 = -0.269 | SARS-CoV-2 NSP5 = 0.0274 | SARS-CoV-2 NSP6 = 0.0268 | SARS-CoV-2 ORF10 = -0.154 | SARS-CoV-2 ORF3B -0.0872 | SARS-CoV-2 ORF6 = -0.0336 | SARS-CoV-2 ORF7B -0.00909 | SARS-CoV-2 ORF8 = -0.0081 | SARS-CoV-2 ORF9B -0.001 | [1] -0.0364 | SARS-CoV-2 S -0.093

B5: VPS37A, Q8NEZ2 (protein)
chain: MSWLFPLTKSASSSAAGSPGGLTSLQQQKQRLIESLRNSHSSIAEIQKDVEYRLPFTINNLTININILLPPQFPQEKPVISVYPPIRHHLMDKQGVYVTSPLVNNFTMHSDLGKIIQSLLDEFWKNPPVLAPTSTAFPYLYSNPSGMSPYASQGFPFLPPYPPQEANRSITSLSVADTVSSSTTSHTTAKPAAPSFGVLSNLPLPIPTVDASIPTSQNGFGYKMPDVPDAFPELSELSVSQLTDMNEQEEVLLEQFLTLPQLKQIITDKDDLVKSIEELARKNLLLEPSLEAKRQTVLDKYELLTQMKSTFEKKMQRQHELSESCSASALQARLKVAAHEAEEESDNIAEDFLEGKMEIDDFLSSFMEKRTICHCRRAKEEKLQQAIAMHSQFHAPL
inactive: SARS-CoV-2 M 0.0736 | SARS-CoV-2 N -0.113 | SARS-CoV-2 NSP1 = 0.139 | SARS-CoV-2 NSP10 = -0.0967 | SARS-CoV-2 NSP12 = -0.0265 | SARS-CoV-2 NSP13 = 0.000597 | SARS-CoV-2 NSP2 = -0.196 | SARS-CoV-2 NSP8 = 0.0268 | SARS-CoV-2 ORF10 = -0.0519 | SARS-CoV-2 ORF3A 0.0692 | SARS-CoV-2 ORF3B -0.0246 | SARS-CoV-2 ORF6 = -0.00251 | SARS-CoV-2 ORF7B 0.0606 | SARS-CoV-2 ORF8 = 0.0757 | SARS-CoV-2 ORF9B 0.027
